Screen size: about 45,000 compounds; about 65 (0.1%) were called active. Calls come from the whole dose curve; as a rule, active = well fitted activation curve with a large enough effect; inconclusive = small, poorly fitted or top-dose-only effect; inactive = no such curve, though single readings can be large or run the other way. This is one part of the list.
Molecular target: Galactocerebrosidase (Homo sapiens) (UniProt P54803)
Test: A Novel Cell-Based Assay to Identify Small Molecules for B -Galactocerebrosidase; note: 0% is about no effect; nearly all actives have a fitted effect of over 65% in size
Details: 145M-Twi-hGALC-G270D cells (Twitcher mouse brain line with human GALC G270D), HMU-beta-Gal fluorescence, 48 h; series mostly up to 57.5 µM; activation: at the top concentration
From the text: Lysosomal storage diseases (LSDs) are caused by genetic mutations in genes encoding proteins important for normal lysosomal function. Globoid cell leukodystrophy (GLD), mostly known as Krabbe disease, is a prototype of the neurological LSDs caused by deficiency of beta-galactocerebrosidase (GALC). In brain specimens of GLD patients, psychosine levels are substantially elevated. At elevated concentrations, psychosine becomes cytotoxic to neuronal cells, particularly to oligodendrocytes (OLG), neural cells responsible for myelin formation. Therefore, the biochemical disturbances in GLD are manifested by different degrees of brain demyelination resulting in a broad spectrum of neurological manifestations. Most of the FDA-approved therapies are based on enzyme replacement therapeutic (ERT) agents, which treat non-neurological symptoms of Gaucher disease, Fabry disease, few mucopolysaccharidoses and Pompe disease. Unfortunately, in GLD, a primarily neurological LSD, ERT agents, as large molecular weight molecules unable to cross the blood-brain barrier, which makes this an inefficacious therapeutic approach. In GLD, increasing the residual GALC activity just above the critical threshold (~10% of wild type enzymatic activity), the cytotoxic levels of psychosine will be reduced, avoiding the OLGs apoptosis and the subsequent demyelination process. This will translate in disease stabilization and amelioration of GLD patient symptoms.
A cell-based assay in 1,536-well plate format was developed to implement a quantitative high-throughput screening (qHTS) assay using GLD-disease relevant cells to identify small molecules that produce enhancements of the residual enzymatic activity levels of mutants GALC found and prevalent in GLD patients. Compounds that are active may therefore have some therapeutic application for GLD. After the treatment of live cells for a determined period, using a fluorescent GALC specific substrate, the mutant residual GALC activity is measured. This cell-based qTHS assay was used to screen part of the MLPCN library for small molecule able to increase the mutant GALC enzymatic activity. In this assay, increased fluorescent signal corresponds to enhanced levels of mutant GALC residual enzymatic activity. Activation is the desired outcome for this assay.
NIH Chemical Genomics Center [NCGC]
NIH Molecular Libraries Probe Centers Network [MLPCN]
Assay Submitter (PI): Gustavo Maegawa MD,PhD, University of Florida, Gainesville, FL
2)#Two cell lines were established for the assay: 145M-Twi-hGALC-G270D (brain-derived Twitcher cell line stably expressing human GALC-G270D) and 145M-Twi-hGALC-WT (same 145M-Twi stably expressing human GALC wild type). The Twitcher is the murine C57B/6 model for GLD with naturally occurring homozygous nonsense GALC mutation. The 145M-Twi cell line was established at Maegawa lab (Ribbens J et al 2014).
a.#Media: DMEM/F12 (1:1) with 10% fetal bovine-serum (FBS) with penicillin/streptomycin (PS-1X - 100 I.U./mL of penicillin+100 ug/mL of streptomycin).
b.#The 6-Hexadecanoylamino-4-methylumbelliferyl-b-D-galactoside (HMU-B-gal) substrate was prepared as per Wiederschain et al 1992. Using 20-mL borosilicate tubes, 2.20 mg of HMU-b-Gal was added in each tube to prepare substrate-film with a final air-nitrogen stream evaporation to remove all diluent solvents.
c.#The HMUb-Gal substrate buffer consists of 0.2 M Na2HPO4 (sodium phosphate dibasic)/ 0.1 M Citric Acid with the pH adjusted to 5.2 using HCl. Sodium Azide at 0.02% and Sodium Taurocholate (NaTC) at 1 mg/mL were added to this substrate buffer.
d.#The HMU-b-Gal stopping buffer consist of 0.5 M NaHCO3 (sodium bicarbonate) /0.5 M Na2CO3 (sodium carbonate). […] Triton X-100 at 0.25% was added.
4)#Preparation of HMU-b-Gal substrate tubes
Adding 18.6 mL of the HMUb-Gal substrate buffer to each 20-mL tube (2.20 mg of HMU-b-Gal) will reach a concentration of 0.2 mM. Vortex well the tube until the solution is fully homogenized (clear cloudy solution). […]

Sequence of UniProt P54803 (P54803 whole entry, looked up): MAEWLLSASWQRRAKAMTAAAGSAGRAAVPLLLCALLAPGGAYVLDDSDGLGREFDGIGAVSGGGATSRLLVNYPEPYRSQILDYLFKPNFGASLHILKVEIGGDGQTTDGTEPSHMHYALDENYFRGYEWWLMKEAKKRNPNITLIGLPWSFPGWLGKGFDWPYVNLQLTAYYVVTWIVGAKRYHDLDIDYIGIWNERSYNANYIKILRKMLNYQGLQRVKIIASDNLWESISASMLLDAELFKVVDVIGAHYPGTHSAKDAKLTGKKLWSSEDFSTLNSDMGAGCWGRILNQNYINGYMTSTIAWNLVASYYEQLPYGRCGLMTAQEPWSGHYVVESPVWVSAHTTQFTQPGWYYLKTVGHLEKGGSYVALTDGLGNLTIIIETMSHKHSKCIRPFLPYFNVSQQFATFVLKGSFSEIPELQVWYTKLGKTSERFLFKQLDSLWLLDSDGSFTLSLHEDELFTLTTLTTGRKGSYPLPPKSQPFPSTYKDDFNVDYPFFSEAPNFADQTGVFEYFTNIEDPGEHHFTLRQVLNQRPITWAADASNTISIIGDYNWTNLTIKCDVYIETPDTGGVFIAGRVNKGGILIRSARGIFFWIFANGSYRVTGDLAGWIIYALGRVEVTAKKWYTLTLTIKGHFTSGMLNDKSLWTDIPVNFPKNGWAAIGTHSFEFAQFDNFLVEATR

activation, inactive:
C#CCOc1c(Br)cc(C2C(C(=O)OC)=C(C)NC3=C2C(=O)c2ccccc23)cc1OCC (stereo not given) -14%, CCOC(=O)c1cnc2cc(Cl)c(OC)cc2c1Nc1ccc(Br)cc1C -9.02%, COc1ccccc1N1CCN(C(=O)C2CCN(S(=O)(=O)c3cccs3)CC2)CC1 4.16%, COc1ccccc1C(=O)NC1(C(F)(F)F)C(=O)NC(C)=C1C#N (stereo not given) 2.12%, O=C(CSc1c2c(nc3ccc(Cl)cc13)CCCC2)N1CCN(c2ccc(Cl)cc2)CC1 -15.1%, CCOc1ccc(OC(=O)c2sc3ncn(Cc4cccc(F)c4)c(=O)c3c2C)cc1 -6.96%, CSc1ccc(CCNS(=O)(=O)c2cc(-c3cc(C)no3)ccc2C)cc1 -14%, Cc1cccc(C(=O)Nc2nnc(S(=O)(=O)N3CCOCC3)s2)c1 -24.6%, COc1ccc(Cn2nc3n(c2=O)-c2ccccc2OC3)cc1 -7.84%, Cc1ccc(C)c(Cn2c(=O)n(CCc3ccccc3)c(=O)c3c(C)c(C)sc32)c1 -1.25%, O=C(Nc1ccccc1)c1cc2c(-c3ccccc3)nn(-c3ccccc3)c2s1 1.9%, Cc1ccc(-c2nnc(Nc3cccc(Br)c3)c3ccccc23)cc1S(=O)(=O)N1CCN(C)CC1 -18%, COc1ccc(OC)c(NC(=O)C(Cc2ccccc2)NS(=O)(=O)c2ccc3c(c2)CCC(=O)N3)c1 (stereo not given) -17.4%, Cc1ncc(CSSCc2cnc(C)c(O)c2CO)c(CO)c1O -17.8%, CCC(=O)N1c2ccccc2CC1C(=O)NCCCN1CCN(c2ccc(F)cc2)CC1 (stereo not given) -16.6%, COc1ccc(NC(=O)C(=O)Nc2ccc3nc4n(c(=O)c3c2)CCCCC4)c(OC)c1 -2.79%, COc1ccc(Cl)cc1S(=O)(=O)Nc1ccc2c(c1)n(C)c(=O)n2C -15.1%, Cc1cccc(C(=O)n2nc(-c3ccco3)nc2NCc2ccccc2)c1 -13.9%, O=C(Nc1ccc(Br)cc1)Nc1nc2c(s1)CCCCCC2 -17.3%, CCN(CC)S(=O)(=O)c1ccc2c(c1)N(CC(=O)Nc1cccc(C(C)=O)c1)C(=O)CO2 -13.2%, O=C(COCc1cc(-c2ccc3c(c2)OCO3)on1)Nc1cccc(O)c1 -10.8%, Cc1nnc(SCC(=O)NCc2cccc(F)c2)c2nn(-c3ccccc3)c(C)c12 -17.7%, COc1ccc2c(c1)c(CC(=O)OC/C=C(\C)CC/C=C(\C)CCC=C(C)C)c(C)n2C(=O)c1ccc(Cl)cc1 -12.2%, O=C(NCCn1cc(SCc2ccc(C(F)(F)F)cc2)c2ccccc21)c1cccs1 -11%, COc1ccc(-n2nc3c(N4CCCC(C(=O)NCc5ccccc5C)C4)nnc(C)c3c2C)cc1 (stereo not given) -39.9%, Cc1ccc(-n2ncc(C(=O)NCCN3CCc4ccccc4C3)c2C2CCN(C(=O)OC(C)(C)C)CC2)c(C)c1 -16%, O=C(CN1C(=O)COc2ccc(S(=O)(=O)NC3CCCC3)cc21)Nc1ccc(F)c(Cl)c1 -7.74%, CNC(=O)C1CCC(Cn2c(=O)c3sccc3n(CC(=O)Nc3ccc(C)cc3C)c2=O)CC1 (stereo not given) -3.67%, Cc1cccc(NC(=O)CSc2nc(=O)n(CCN3CCOCC3)c3c2CCC3)c1 -20.9%, Cc1ccc(NC(=O)Nc2csc3c2CCCC3)c(C)c1 -12.5%, COc1cccc(NC(=O)CN2C(=O)COc3ccc(S(=O)(=O)N4CCOCC4)cc32)c1 -9.26%, COc1ccccc1CNc1ncnc2onc(-c3ccc(Cl)cc3)c12 -8.94%, CN(c1nnc(NC(=O)Nc2ccc(Br)cc2)s1)C1CCCCC1 -17.5%, Cc1[nH]c2ccccc2c1C1(O)C(=O)N(Cc2ccccc2)c2ccc(Br)cc21 (stereo not given) -1.4%, CCOC(=O)c1c(NC(=O)c2cc(=O)c3c(C)cc(C)cc3o2)sc(C)c1C -7.75%, Cc1cc(C(=O)Nc2ccc(Cl)cc2)c2c(C)nn(-c3ccccc3)c2n1 -7.52%, CCCS(=O)(=O)NCCc1sc2nc(-c3ccc(Cl)cc3)nn2c1C -10.2%, CCOC(=O)N1CCc2c(sc(NCc3ccc(N(C)C)cc3)c2C(=O)Nc2ccccc2OCC)C1 -13%, Brc1ccc(-c2csc(-c3nc(-c4ccc(Br)s4)cs3)n2)cc1 -12.1%, CCOc1ccc(N(CC(=O)NCc2ccc(C)cc2)S(=O)(=O)c2c(C)[nH]c(=O)[nH]c2=O)cc1 -14.5%, CCOc1ccc(NC(=O)CSc2oc(-c3ccco3)nc2S(=O)(=O)c2ccc(Cl)cc2)cc1 0.972%, O=C(Nc1ccccc1C(F)(F)F)N1Cc2ccccc2Oc2ncccc21 -12.5%, COc1cccc(C2C=C(c3ccc(C)cc3)Nc3c(C(=O)Nc4ccc(F)cc4)cnn32)c1OC (stereo not given) -17.6%, CC(CCc1ccccc1)NC(=O)Cn1ncc2c3ccccc3n(Cc3cccc(Cl)c3)c2c1=O (stereo not given) -12.3%, COc1ccc(CN(C(=O)c2ccc(OCC(C)C)cc2)C2CCS(=O)(=O)C2)cc1 (stereo not given) -8.69%, CC(NC(=O)c1ccc(Cn2c(SCc3ccccc3)nc3cccnc32)cc1)c1ccccc1 (stereo not given) -18.6%, CCc1ccc(NC(=O)c2sc3nc(-c4ccccc4)cn3c2C)cc1 -13.2%, CCN1CCN(C(c2cccc(OC)c2)c2c(O)cc(C)n(Cc3ccco3)c2=O)CC1 (stereo not given) -23.1%, CCN(CC)CCNC(=O)Cn1cnc2sc(C)c(S(=O)(=O)N3CCN(c4ccccc4OC)CC3)c2c1=O -10.2%, COc1ccc(N2CCN(C(=O)Nc3ccc(Cl)cc3)CC2)cc1 -16.6%, CCc1cccc(-n2nnc(-c3nc(-c4ccc5c(c4)OCO5)no3)c2C)c1 -15.4%, Cc1cccc(C(=O)NCc2nnc(SCC(=O)Nc3ccccc3F)n2-c2ccccc2)c1 -17.4%, COc1ccc(NC(=O)CSc2nc(-c3ccccc3)c3ccccc3n2)cc1 -13.6%, CCOc1ccc(-c2n[nH]c3c2C(c2cccs2)N(c2ccc(Br)cc2)C3=O)cc1 (stereo not given) -26.1%, CCOC(=O)c1cc(-c2ccc(OC)cc2)n(CCC(=O)NC2CCC(C)CC2)c1C (stereo not given) -16.8%, COc1ccc(S(=O)(=O)N2CCN(C(=O)c3cc(-c4ccc(Br)cc4)n[nH]3)CC2)cc1OC -40.2%, CC(=O)N1c2ccc(S(=O)(=O)NCC3CCC(C(=O)Nc4cccc(F)c4)CC3)cc2CC1C (stereo not given) 21.9%, CCOc1ccc(S(=O)(=O)NCCc2sc(-c3ccc(C)cc3)nc2C)cc1 -20%, COc1cccc(CNC(=O)Cn2ccc3cc(S(=O)(=O)N4CCCC4)ccc32)c1 -11%, CCOc1ccccc1N1CC(c2nc3ccccc3n2CCCOc2ccccc2OC)CC1=O (stereo not given) -13.7%, CCc1ccccc1N1CC(c2nc3ccccc3n2Cc2cccc(C)c2)CC1=O (stereo not given) 8.21%, O=C(Nc1sc2c(c1C(=O)NCc1ccccc1)CCCC2)c1cc(=O)c2cc(Cl)ccc2o1 -8.62%, N#Cc1ccccc1Cn1nnc2c(=O)[nH]c(C3CCCN(S(=O)(=O)c4ccc(F)cc4)C3)nc21 (stereo not given) -8.2%, O=C(Nc1nc2nc(-c3ccccc3)cc(=O)n2[nH]1)c1ccc(F)cc1 -9.15%, O=C(Nc1cccnc1Cl)c1cc(-c2ccc(Cl)cc2)on1 -5.1%, O=C(NCc1ccccc1)C1CCC(CNS(=O)(=O)c2ccc(Br)s2)CC1 (stereo not given) -1.16%, COc1cc(NC(=O)Cn2c(=O)n(C(C)C)c(=O)c3oc4ccccc4c32)cc(OC)c1 -13.8%, CC1CCc2nn(CC(=O)Nc3cccc(C(F)(F)F)c3)c(=O)cc2C1 (stereo not given) -10.8%, CNC(=O)c1cc2n(n1)CCCN(Cc1ccc(F)cc1)C2=O -3.52%, O=C1C(c2ccc(F)cc2)N(CCc2ccccc2)C(=O)CN1C1CCCCC1 (stereo not given) -0.677%, CC(C)c1ccc(C(=O)Nc2cccc3cccnc23)cc1 -8.58%, COc1ccc(CN(C(=O)Nc2ccc(C)c(F)c2)C2CCN(C(C)=O)CC2)cc1 -10.6%, Cc1ccccc1C(=O)Nc1nnc(SCc2cc(=O)c3c(C)ccc(C)c3[nH]2)s1 19.3%, CCc1ccc(NC(=O)Cn2nnc(C(=O)NCc3ccco3)c2N)cc1 -14.1%, COc1cccc(COC(=O)c2ccc(-c3nnn(Cc4ccccc4)n3)cc2)c1 -9.41%, CC1CCN(S(=O)(=O)c2cc(C(=O)NCc3ccc(F)cc3)n(C)c2)CC1 -4.57%, CCC1CN(C(=O)N2CCC(C(=O)NCCOC)CC2)c2ccccc2O1 (stereo not given) -13.2%, Cc1ccc(NC(=O)CCS(=O)(=O)c2ccc3nc(C)sc3c2)cc1 -8.02%, CCOc1ccc(CCNS(=O)(=O)c2c(C)nc3sc(C)cn3c2=O)cc1OCC -9.8%, CC(=O)c1ccc(NC(=O)CCc2c(C)nn(-c3ccc4nncn4n3)c2C)cc1 3.89%, CSc1ccc(CCNC(=O)c2cc3n(n2)CCCN(Cc2ccc(C)cc2)C3=O)cc1 -26.4%, CCc1ccc(NC(=O)C2CCCN(S(=O)(=O)c3c(C)[nH]c(=O)[nH]c3=O)C2)cc1 (stereo not given) 5.19%, CC(C)c1ccc(NS(=O)(=O)c2ccc3[nH]c(=O)ccc3c2)cc1 -10.7%, COC(=O)c1ccc(Cn2nc(-c3ccc(C)c(C)c3)ccc2=O)cc1 -4.76%, COc1ccc(Cl)cc1Nc1ncnc2c1nc1n2CCCC1 4.94%, COCCc1nn2c(=O)cc(COC(=O)COc3ccccc3C)nc2s1 13.4%, O=C(CCS(=O)(=O)c1cc2c3c(c1)CCN3C(=O)CC2)NCc1ccc(F)cc1 -0.983%, CC(C)c1ccc(NC(=O)C2CCCN(S(=O)(=O)c3cccc4nonc34)C2)cc1 (stereo not given) -10.5%, O=C(Nc1noc2ccccc12)c1cccc(F)c1 -10.3%, CCOC(=O)c1c(S(=O)(=O)N2CCCC(C(=O)Nc3ccc(C)cc3C)C2)c(C)n(CC)c1C (stereo not given) -17.9%, COC(=O)c1ccc(C2c3c(oc4cc(C)c(C)cc4c3=O)C(=O)N2c2ccccn2)cc1 (stereo not given) -18.9%, O=c1c2ccccc2n2c(-c3ccc(F)c(F)c3)nnc2n1CCc1ccccc1 -19%, Cc1cc(C)c(NC(=O)CSc2nnc3[nH]c(=O)cc(C)n23)c(C)c1 -6.86%, CCC(=O)Nc1ccc2nc(SCC(=O)N3CCc4ccccc43)sc2c1 2.62%, CCOC(=O)c1ccccc1NC1(c2ccc(OC)cc2)C(=O)c2ccccc2C1=O -16.8%

From PubChem BioAssay AID1159614 (National Center for Advancing Translational Sciences (NCATS), 2016)
